Measurements as given in PubChem BioAssay AID624171 (National Center for Advancing Translational Sciences (NCATS), 2012).
About 1,200 (0.29%) of roughly 410,000 compounds were called active. The shares of active, inactive and inconclusive entries below differ from those in the screen. Calls follow the shape of the dose curve; as a rule, active = well fitted activation curve with a large enough effect; inconclusive = small, poorly fitted or top-dose-only effect; inactive = flat fitted curve, though single readings scatter. Where the call is inconclusive, the potency comes from a doubtful curve fit.

Assay: qHTS of Nrf2 Activators; also: nearly all actives have a fitted effect of over 65% in size; as to activation: % of control where 0% means no effect
Conditions: AREc32 ARE-luciferase reporter (MCF7-derived line), luminescence, 24 h; activation: at 46.1 µM (top of the series)
Outline: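 Each well held 1000 AREc32 cells, which were incubated with compound for 24 hr at 37 deg C after overnight attachment, and ARE reporter activity was quantified by firefly luciferase luminescence.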
Potency is read from the fitted curve at half-maximal effect; tags tell the direction and shape of the fitted curve.

Potency, inconclusive:
Oc1ccc(N=Cc2ccc(-c3cccs3)s2)cc1 14.1 µM [activator, single point]
COc1ccc(Cl)cc1NC(=O)c1cc(-c2ccco2)on1 1.78 µM [activator, full curve, poor fit]
COC(=O)C1=C(C(=O)OC)C(c2ccccc2O)c2sc(=O)[nH]c2S1 (stereo not given) 17.8 µM [activator, partial curve, poor fit]
Fc1cccc(-c2ncc(-c3ccccc3)o2)c1 10 µM [activator, partial curve]
COc1ccccc1/C=C/C(=O)c1ccc(NC(C)=O)cc1 6.31 µM [activator, full curve]
O=C1C=C(O)c2cccc3cccc1c23 20 µM [activator, single point]
Cc1noc(C)c1COC(=O)c1cnc(Cl)c(Cl)c1 22.4 µM [activator, single point]
O=C(NCc1ccco1)c1cc2ccccc2c(=O)o1 31.6 µM [activator, single point]
Oc1ccccc1C1Nc2cccc3cccc(c23)N1 11.2 µM [activator, partial curve, poor fit]
c1ccc(CNc2ncnc3scc(-c4cccs4)c23)nc1 3.55 µM [activator, partial curve, poor fit]
Cc1ccc(NC(=O)CSc2cccc3cccnc23)c(C)c1 35.5 µM [activator, single point]
O=[N+]([O-])c1ccccc1N/N=C/c1cccc(O)c1O 15.8 µM [activator, single point]
O=C(Nc1ccc2c(c1)CCC2)c1cccs1 15.8 µM [activator, partial curve, poor fit]
CCCc1c(C(=O)N/N=C/C(C)=C/c2ccco2)nnn1-c1nonc1N 22.4 µM [activator, single point]

Potency, inactive:
N#Cc1ccc(OCC(=O)N2CCN(S(=O)(=O)c3ccc(Cl)s3)CC2)cc1
Cc1ccc(C(=O)N/C(=C/c2ccccc2)C(=O)NCc2ccncc2)cc1
COc1ccc(C(=O)NNC(=O)CSc2nc3c(c(=O)n(C)c(=O)n3C)n2C)cc1
CC(=O)C1=C(c2ccc(Br)cc2)C(=O)c2ccccc2C1=O

Potency, active:
Cc1ccccc1-c1n[nH]c(=S)n1/N=C/C=C/c1ccco1 12.6 µM

activation, inactive:
O=[N+]([O-])c1cc(S(=O)(=O)N2CCCCCC2)ccc1F 3.42% [at 9.22 µM]
